# Patent US8030300B2, “Ligands for nicotinic acetylcholine receptors, and methods of making and using them” (priority 2003, dated 2011)
# Where two headings read alike, the source gives them in different places. At least one structure is not confirmed: it was looked up by name or label, or the drawing left a doubt. Some entries share one result that the patent states for a list of compounds.
# What was measured:
# Type in all cases: binding
# [1] = test system: receptors in rat forebrain (mainly α4β2); settings: for Affinity ratio α3β4/Forbrain: ratio of the corresponding Ki values
# Excerpt: (§1) In order to assess the steric and hydropathic effects of the C-5 substituents of the pyridine on the binding affinity and subtype-selectivity at neuronal nicotinic acetylcholine receptors. […] The binding affinity ratios for a ligand, calculated from its affinities at an α subunit paired with either the β2 osubunit or the β4 subunit, represents a measure of the selectivity of that ligand with regard to the β subunits.
# In Vitro Inhibition of ^3H-Epibatidin Binding
# The high affinity binding site for ^3H-epibatidin is most certainly binding to the α4β2 subtype of nicotinic receptors. The identity of the low affinity site is still believed to be unknown.
# Tissue preparation: Preparations may be performed at 0-4° C. unless otherwise indicated. […] The tissue suspension may then be centrifuged at 27,000×g for 10 min. The supernatant is then discarded and the pellet may then be washed three times by centrifugation at 27,000×g for 10 min in 20 mL fresh buffer, and the final pellet may be resuspended in fresh buffer (400 mL per g of original tissue) and used for binding assays.
# Assay: Aliquots of 2.0 mL homogenate may be added to 0.100 mL of test solution and 0.100 mL of ^3H-epibatidin (0.3 nM, final concentration), mixed and incubated for 60 min at room temperature. […] The amount of radioactivity on the filters may be determined by conventional liquid scintillation counting. Specific binding is total binding minus non-specific binding.
# α3β2 nAChR subtype = target: T1, α3β2 nAChR subtype (Rattus norvegicus, UniProt P04757+P12390); settings: Table 2; ratio of the corresponding Ki values
# T1 construct: expressed in transfected cells
# T1 sequence (P12390 25-500): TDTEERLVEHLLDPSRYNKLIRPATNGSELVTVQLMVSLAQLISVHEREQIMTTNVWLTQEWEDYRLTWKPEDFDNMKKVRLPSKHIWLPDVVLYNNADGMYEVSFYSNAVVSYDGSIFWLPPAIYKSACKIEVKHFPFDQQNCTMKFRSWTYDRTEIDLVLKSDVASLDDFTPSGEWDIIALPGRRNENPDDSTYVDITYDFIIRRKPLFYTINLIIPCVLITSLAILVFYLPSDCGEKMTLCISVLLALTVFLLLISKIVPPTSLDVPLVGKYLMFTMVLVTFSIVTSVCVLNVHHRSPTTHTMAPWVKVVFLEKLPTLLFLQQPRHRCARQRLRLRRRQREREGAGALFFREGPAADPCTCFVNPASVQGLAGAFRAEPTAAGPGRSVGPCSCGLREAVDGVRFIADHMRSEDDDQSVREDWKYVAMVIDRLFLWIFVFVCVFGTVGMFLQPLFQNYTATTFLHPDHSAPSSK
# T1 sequence (P04757 26-499): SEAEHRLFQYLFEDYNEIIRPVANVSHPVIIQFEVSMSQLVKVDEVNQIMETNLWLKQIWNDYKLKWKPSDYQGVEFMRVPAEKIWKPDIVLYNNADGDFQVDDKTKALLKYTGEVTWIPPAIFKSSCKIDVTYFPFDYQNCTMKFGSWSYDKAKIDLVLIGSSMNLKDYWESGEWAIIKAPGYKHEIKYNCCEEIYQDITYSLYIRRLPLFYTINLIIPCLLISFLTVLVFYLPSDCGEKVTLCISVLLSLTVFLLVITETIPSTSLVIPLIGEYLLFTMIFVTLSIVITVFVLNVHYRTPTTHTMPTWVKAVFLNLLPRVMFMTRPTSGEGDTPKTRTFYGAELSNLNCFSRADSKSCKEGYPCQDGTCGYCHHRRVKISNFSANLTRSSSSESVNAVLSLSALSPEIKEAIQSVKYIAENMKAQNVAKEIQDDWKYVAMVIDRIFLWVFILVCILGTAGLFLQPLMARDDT
# Excerpt: as §1
# α2β2 nAChR subtype = target: T2, α2β2 nAChR subtype (Rattus norvegicus, UniProt P12389+P12390); settings: Table 2; ratio of the corresponding Ki values
# T2 construct: expressed in transfected cells
# T2 sequence (P12390 25-500): as the sequence (P12390 25-500) above
# T2 sequence (P12389 28-511): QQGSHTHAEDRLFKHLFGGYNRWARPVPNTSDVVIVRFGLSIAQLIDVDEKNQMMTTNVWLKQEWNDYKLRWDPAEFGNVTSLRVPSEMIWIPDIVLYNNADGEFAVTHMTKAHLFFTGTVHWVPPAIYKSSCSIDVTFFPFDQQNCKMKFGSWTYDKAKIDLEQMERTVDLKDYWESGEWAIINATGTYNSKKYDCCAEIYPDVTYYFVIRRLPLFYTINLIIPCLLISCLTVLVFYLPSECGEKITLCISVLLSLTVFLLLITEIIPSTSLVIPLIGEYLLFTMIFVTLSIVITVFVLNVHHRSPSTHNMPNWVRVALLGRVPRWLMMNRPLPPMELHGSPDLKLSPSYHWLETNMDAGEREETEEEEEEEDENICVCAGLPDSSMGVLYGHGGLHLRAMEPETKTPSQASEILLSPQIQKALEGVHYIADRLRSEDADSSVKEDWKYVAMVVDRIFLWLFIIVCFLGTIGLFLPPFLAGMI
# Excerpt: as §1
# α4β2 nAChR subtype = target: T3, α4β2 nAChR subtype (Rattus norvegicus, UniProt P09483+P12390); settings: for Affinity ratio α4β4/α4β2: Table 2, ratio of the corresponding Ki values
# T3 construct: expressed in transfected cells
# T3 sequence (P12390 25-500): as the sequence (P12390 25-500) above
# T3 sequence (P09483 31-630): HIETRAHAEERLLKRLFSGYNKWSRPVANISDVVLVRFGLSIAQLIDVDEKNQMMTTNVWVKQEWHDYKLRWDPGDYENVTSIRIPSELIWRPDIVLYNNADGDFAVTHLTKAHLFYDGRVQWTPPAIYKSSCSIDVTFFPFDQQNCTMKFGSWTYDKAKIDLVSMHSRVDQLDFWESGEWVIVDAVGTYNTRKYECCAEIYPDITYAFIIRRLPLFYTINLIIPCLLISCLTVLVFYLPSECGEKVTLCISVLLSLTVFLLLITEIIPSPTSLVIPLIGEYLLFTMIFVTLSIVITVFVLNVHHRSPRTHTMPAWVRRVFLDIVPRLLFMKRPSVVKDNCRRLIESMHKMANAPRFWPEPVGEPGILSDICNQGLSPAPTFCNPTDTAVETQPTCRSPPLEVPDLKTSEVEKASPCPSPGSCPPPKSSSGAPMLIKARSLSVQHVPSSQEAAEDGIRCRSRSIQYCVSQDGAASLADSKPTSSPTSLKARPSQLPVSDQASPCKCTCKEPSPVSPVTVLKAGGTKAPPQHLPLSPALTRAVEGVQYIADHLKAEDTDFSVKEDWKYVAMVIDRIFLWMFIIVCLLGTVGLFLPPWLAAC
# Excerpt: as §1
SMILES,Affinity ratio α3β4/Forbrain ([1]; Table 2),Affinity ratio α3β4/α3β2 (α3β2 nAChR subtype),Affinity ratio α2β4/α2β2 (α2β2 nAChR subtype),Affinity ratio α4β4/α4β2 (α4β2 nAChR subtype),selectivities for the receptors in rat forebrain over α3β4 subtype [1],Affinity ratio α3β4/Forbrain ([1]; Table 3),"selectivity among the six rat nAChR subtypes and rat forebrain (α4β2 nAChR subtype; text b205, best selectivity)"
C#Cc1cncc(OC[C@@H]2CCCN2C)c1 [Ligand 18],844,288,579,464,,,
CCCCC#Cc1cncc(OC[C@@H]2CCCN2C)c1 [Ligand 12],"1,404",471,128,540,,,
FCCCCC#Cc1cncc(OC[C@@H]2CCCN2)c1 [Ligand 42],,,,,"up to 15,000 fold",,
CN1CCC[C@H]1COc1cncc(C#CCCCCCCCCO)c1 [Ligand 17],"2,890","1,203",291,548,,,
CN1CCC[C@H]1COc1cncc(C#CCCCCO)c1 [Ligand 16],"11,292","3,190","1,125","1,568",,"11,292",
FCCCCC#Cc1cncc(OC[C@@H]2CCN2)c1 [Ligand 41],,,,,"up to 15,000 fold",,
CN1CCC[C@H]1COc1cncc(CCCCCCO)c1 [Ligand 19],"3,710","1,493",345,"1,290",,,
CN1CCC[C@H]1COc1cncc(C#CCO)c1 [Ligand 14],"5,760","2,382",774,"1,772",,,
"CN1CCC[C@H]1COc1cccnc1 [Ligand 8, 3-(1-Methyl-2(S)-pyrrolidinylmethoxy)pyridine, reference compound]",,,,,,,less than 400 fold
CN1CCC[C@H]1COc1cncc(C#CC(C)(C)O)c1 [Ligand 15],"3,886","1,655","3,052","3,776",,,
CN1CCC[C@H]1COc1cncc(C#CCNC(=O)OC(C)(C)C)c1 [Ligand 13],"16,146","8,240","6,924","4,000",,,
